# Screen size: about 350,000 compounds; about 31,000 (8.9%) were called active. Inconclusive results, whose numbers are uncertain, are shown with a selection of clear calls. Calls follow the shape of the dose curve; as a rule, active = well fitted inhibition curve with a large enough effect; inconclusive = small, poorly fitted or top-dose-only effect; inactive = no such curve, though single readings can be large or run the other way. Where the call is inconclusive, the potency comes from a doubtful curve fit.
# Target: Histone-lysine N-methyltransferase EHMT2 (Homo sapiens) (UniProt Q96KQ7)
# Sequence of UniProt Q96KQ7 (Q96KQ7 whole entry, looked up): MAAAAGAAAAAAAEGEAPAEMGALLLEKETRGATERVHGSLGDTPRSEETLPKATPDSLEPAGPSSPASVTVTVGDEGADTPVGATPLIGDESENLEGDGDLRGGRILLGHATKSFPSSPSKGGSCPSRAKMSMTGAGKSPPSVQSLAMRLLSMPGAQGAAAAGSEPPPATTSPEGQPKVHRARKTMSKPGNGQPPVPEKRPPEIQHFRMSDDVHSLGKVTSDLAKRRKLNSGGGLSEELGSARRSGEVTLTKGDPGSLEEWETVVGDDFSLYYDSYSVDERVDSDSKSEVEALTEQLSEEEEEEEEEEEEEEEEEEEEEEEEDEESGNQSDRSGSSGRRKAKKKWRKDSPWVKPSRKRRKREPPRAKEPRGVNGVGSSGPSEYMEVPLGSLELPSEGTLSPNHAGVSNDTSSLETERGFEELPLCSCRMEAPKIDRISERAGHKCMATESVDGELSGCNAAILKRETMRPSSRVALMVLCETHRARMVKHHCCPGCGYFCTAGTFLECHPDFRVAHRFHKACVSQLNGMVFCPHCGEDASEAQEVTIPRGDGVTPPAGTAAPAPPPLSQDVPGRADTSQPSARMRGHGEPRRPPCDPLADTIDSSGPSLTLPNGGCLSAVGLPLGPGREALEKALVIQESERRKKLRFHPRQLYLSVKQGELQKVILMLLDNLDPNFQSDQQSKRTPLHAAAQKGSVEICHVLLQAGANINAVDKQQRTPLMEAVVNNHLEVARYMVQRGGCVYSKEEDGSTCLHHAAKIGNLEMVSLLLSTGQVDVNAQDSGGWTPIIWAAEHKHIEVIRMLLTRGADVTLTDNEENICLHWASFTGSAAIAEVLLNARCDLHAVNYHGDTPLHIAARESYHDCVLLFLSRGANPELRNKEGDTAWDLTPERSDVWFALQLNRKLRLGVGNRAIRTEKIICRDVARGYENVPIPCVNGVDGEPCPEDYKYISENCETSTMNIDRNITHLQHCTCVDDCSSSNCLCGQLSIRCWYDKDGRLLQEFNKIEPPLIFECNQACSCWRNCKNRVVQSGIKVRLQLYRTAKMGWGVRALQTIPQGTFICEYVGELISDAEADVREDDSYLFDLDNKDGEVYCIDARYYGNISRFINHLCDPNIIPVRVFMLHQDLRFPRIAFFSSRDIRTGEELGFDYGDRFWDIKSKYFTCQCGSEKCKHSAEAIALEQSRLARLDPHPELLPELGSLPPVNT
# Experiment: qHTS Assay for Inhibitors of Histone Lysine Methyltransferase G9a; also: nearly all actives have a fitted effect of over 75% in size
# Conditions: G9a H3K9 monomethylation, AlphaScreen, 2 h; activity, negative = inhibition: at 59 µM (top of the series) unless noted
# Outline: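 AlphaScreen read-out: biotin-H3K9 peptide (500 nM) methylation by 20 nM enzyme with 20 uM SAM, 2 h at room temperature after 15 min compound preincubation; anti-monomethyl H3K9 antibody plus donor/acceptor beads, 10 min dark.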
# % is scaled to controls: 0 for no effect and ±100 for the full control effect; potency is read from the fitted curve at half-maximal effect; tags tell the direction and shape of the fitted curve.
SMILES,Potency,"activity, negative = inhibition"
C/C(Cn1cnc([N+](=O)[O-])n1)=N\NC(=O)c1ccccc1O,"inconclusive: 79.4 µM [inhibitor, partial curve, poor fit]",–
Cc1cc(O)c(C(=O)/C=C/c2ccccc2)c(=O)o1,"inconclusive: 89.1 µM [inhibitor, single point]",–
Brc1cccc(-c2nnc(SCc3ccon3)n2-c2ccccc2)c1,inactive,–
COc1ccc(C(=O)N2CCN(c3ccc([N+](=O)[O-])c(NCCc4ccc(OC)c(OC)c4)c3)CC2)cc1,inactive,–
Cc1cnc(=O)[nH]c1SCc1ccc([N+](=O)[O-])cc1,active: 63.1 µM,–
O=C(/C=C/c1ccc(Br)o1)Nc1nnc(C2CC2)s1,active: 56.2 µM,–
Cc1cc(O)c(Oc2cc(C)cc(O)c2O)c(O)c1,active: 0.891 µM,–
COc1cccc(CN(C)C(=O)C2CSC3(C)CCC(=O)N23)c1OC (stereo unspecified),"inconclusive: 10 µM [inhibitor, partial curve, poor fit]",–
Cc1cc(C(=O)Nc2cccc(-c3ccc(N4CCOCC4)nn3)c2)ccc1[N+](=O)[O-],"inconclusive: 39.8 µM [inhibitor, partial curve, poor fit]",–
Cc1nc([N+](=O)[O-])c(Br)n1CC(=O)c1ccccc1,"inconclusive: 2.82 µM [inhibitor, partial curve, poor fit]",–
CCOC(=O)Cn1c(S(=O)(=O)Cc2cccc(F)c2)nc(-c2ccccc2)c1-c1ccccc1,–,inconclusive: -51.3% [inhibitor] [at 12.7 µM]
CCNC(=S)NNC(=O)c1cc(-c2cccc(OC)c2)nc2ccccc12,active: 39.8 µM,–
CC1(C)CC(=O)c2cc(-c3nc(-c4ccc(Cl)cc4)cs3)c(=O)[nH]c2C1,active: 14.1 µM,–
CC(=O)NC(=S)Nc1ccc(S(=O)(=O)N2CCOCC2)cc1,inactive,–
Cc1c(/C(O)=C2\C(=O)C(=O)N(CCN(C)C)C2c2ccco2)cnn1-c1ccccc1 (stereo unspecified),"inconclusive: 89.1 µM [inhibitor, single point]",–
O=C(NNC(=O)C1CCCCC1)c1cnccn1,"inconclusive: 5.01 µM [inhibitor, full curve, poor fit]",–
COc1ccc(CCNc2oc(COc3cccc(C)c3)nc2C#N)cc1OC,active: 14.1 µM,–
C/C(N)=C(/C#N)C(=O)CSc1nnnn1-c1ccc(C)cc1C,inactive,–
Cc1cc(C(F)F)n2ncc(C(=O)NC3CCCCCC3)c2n1,–,inactive: 6.8% [at 12.7 µM]
CC(C)Oc1ccc(NC(=O)c2cc3ccccc3o2)cc1,inactive,–
Cn1cc(C(c2ccccn2)c2cn(C)c3ccccc23)c2ccccc21,–,inactive: 11.3% [at 12.7 µM]
